Over roughly 81,000 sequences, “one-hybrid fitness for binding parS DNA” has its median near -0.17; the highest 2% begin near 0.51. This is one part of the list.
B1: Caulobacter ParB omega fusion; a variant is named by its letters at X, in order, B8GW30 (parent)
chain: MESVVVGEPGMSEGRRGLGRGLSALLGEVDAAPAQAPGEQLGGSREAPIEILQRNPDQPRRTFREEDLEDLSNSIREKGVLQPILVRPSPDTAGEYQIVAGERAWRAAQRAGLKTVPIMVRELDDLAVLEIGIIENVQRADLNVLEEALSYKVLMEKFERTQENIAQTIGKSXSHVANXMRLLXLPDEVQSYLVSGELTAXHARAIAAAADPVALAKQIIEGGLSVRETEALARKAPNLSAGKSKGGRPPRVKDTDTQALESDLSSVLGLDVSIDHRGSTGTLTITYATLEQLDDLCNRLTRGI

Variants of: B1
Test: one-hybrid fitness for binding parS DNA (scaled: cognate 1, non-cognate 0); higher = stronger binding
Conditions: with parS DNA site
In short: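 Selection: bacterial one-hybrid in E. coli USO, HIS3 reporter with the site 19 bp from the promoter, 48 hours at 37°C on M9-minus-histidine plus 0.1 mM IPTG and 5 mM 3-AT. Libraries were Caulobacter ParB with four randomised specificity codons, sequenced on Illumina before and after selection. Fitness is the rescaled log change in variant-to-wild-type read ratio, anchored to the cognate and non-cognate sites.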

Variant	one-hybrid fitness for binding parS DNA
TQFD	≤ 0.2
QLHF	≤ 0.2
ATVT	≤ 0.2
YFTT	≤ 0.2
NRQG	≤ 0.2
SEAA	≤ 0.2
SLGQ	≤ 0.2
YDTN	≤ 0.2
TLPC	≤ 0.2
SPQC	≤ 0.2
LDDG	≤ 0.2
IHRR	≤ 0.2
CHSA	≤ 0.2
QKPH	≤ 0.2
RVRN	0.409
HKSV	≤ 0.2
LCMG	≤ 0.2
ECSR	≤ 0.2
ALSN	≤ 0.2
YPRD	≤ 0.2
ACPR	≤ 0.2
HPKR	≤ 0.2
CFLT	≤ 0.2
PWRG	≤ 0.2
HLRH	≤ 0.2

Variant	one-hybrid fitness for binding parS DNA
EYHN	≤ 0.2
VYKQ	≤ 0.2
SSLW	≤ 0.2
MHPT	≤ 0.2
TQKF	≤ 0.2
LIKF	≤ 0.2
LYMN	≤ 0.2
MYIR	≤ 0.2
YLIG	≤ 0.2
HVKG	≤ 0.2
RVPF	≤ 0.2
VSLW	≤ 0.2
HCVK	≤ 0.2
ERQR	≤ 0.2
PKYP	≤ 0.2
TTHK	≤ 0.2
QYMI	≤ 0.2
VSLT	≤ 0.2
DDVI	≤ 0.2
ITGG	≤ 0.2
GVCL	≤ 0.2
DNWC	≤ 0.2
SGRQ	≤ 0.2
NEHP	≤ 0.2
QKDF	≤ 0.2

Variant	one-hybrid fitness for binding parS DNA
TKRL	≤ 0.2
NYVS	≤ 0.2
VTVS	≤ 0.2
LHYD	≤ 0.2
WTMR	≤ 0.2
HCTS	≤ 0.2
HITN	≤ 0.2
WRDK	≤ 0.2
QAKQ	≤ 0.2
LPMY	≤ 0.2
YEKS	≤ 0.2
EVLC	≤ 0.2
VYHN	≤ 0.2
FRIS	≤ 0.2
QLWN	≤ 0.2
NHFL	≤ 0.2
LYGC	≤ 0.2
ERPA	≤ 0.2
FQAT	≤ 0.2
DQQL	≤ 0.2
LPNL	≤ 0.2
SVSH	≤ 0.2
TRPA	≤ 0.2
RFVK	≤ 0.2
GNKR	≤ 0.2

Variant	one-hybrid fitness for binding parS DNA
VHPR	≤ 0.2
PRPL	≤ 0.2
KGIG	≤ 0.2
KYTS	≤ 0.2
QRQV	≤ 0.2
TYNV	≤ 0.2
VHRA	≤ 0.2
GTTE	≤ 0.2
RDFK	≤ 0.2
MKYG	≤ 0.2
RHWS	0.925
PTEE	≤ 0.2
ICHW	≤ 0.2
PKSL	≤ 0.2
QCIW	≤ 0.2
NIAC	≤ 0.2
EEMF	≤ 0.2
TAKS	≤ 0.2
QRFP	≤ 0.2
NFKG	≤ 0.2
EHAV	≤ 0.2
RFTY	0.457
LHAP	≤ 0.2
